{
  "source": "PubChem BioAssay AID624296",
  "about": "(National Center for Advancing Translational Sciences (NCATS), 2012)",
  "note": "Among all 350,000 compounds or so, about 9,900 (2.8%) were called active. The shares of active, inactive and inconclusive entries below differ from those in the screen. Calls come from the whole dose curve; as a rule, active = well fitted activation curve with a large enough effect; inconclusive = small, poorly fitted or top-dose-only effect; inactive = no such curve, though single readings can be large or run the other way. No potency is given beside an inconclusive call; the fits are too rough.",
  "data": [
    {"assay": "A quantitative high throughput screen for small molecules that induce DNA re-replication in MCF 10a normal breast cells; note: nearly all actives have a fitted effect of over 50% in size; note: potency is the fitted concentration of half-maximal effect; tags give direction and shape of the fitted curve.", "details": "MCF 10A DNA re-replication, Hoechst nuclear intensity, 48 h; series mostly up to 46.1 µM", "values": [
      {"compound": "Nc1c(C(=O)NC2CCCC2)c2nc3ccccc3nc2n1CC1CCCO1", "note": "(configuration not stated)", "Potency": "active: 7.31 µM"},
      {"compound": "COC(=O)C1=C(c2ccc3ccccc3c2)C[C@@H]2CC[C@H]1N2C", "Potency": "inactive"},
      {"compound": "CCCCCCn1c(=O)c(C(=O)Nc2ncccc2C)c(O)c2ccccc21", "Potency": "inconclusive [activator, single point]"},
      {"compound": "N[C@@H]1CC[C@@]2(O)[C@H]3Cc4ccc(O)c5c4[C@@]2(CCN3CC2CC2)C1O5", "note": "(some centres not stated)", "Potency": "inconclusive [activator, full curve, poor fit]"},
      {"compound": "CC(C)C[C@H]1CN([C@@H](CC(C)C)CN2CCCC2CN2C(=S)NC[C@@H]2Cc2ccc(O)cc2)C(=S)N1CC1CCCCCC1", "note": "(some centres not stated)", "Potency": "inconclusive [activator, full curve, poor fit]"},
      {"compound": "CCCCCC1CC(CC(=O)NC(=S)Nc2ccc([N+](=O)[O-])cc2)C(=O)O1", "note": "(configuration not stated)", "Potency": "inconclusive [activator, single point]"},
      {"compound": "CC(C(=O)O)N(C(=O)c1ccccc1)c1ccc(F)c(Cl)c1", "note": "(configuration not stated)", "Potency": "inactive"},
      {"compound": "O=C(c1ccc(N2CC3CC(C2)c2cccc(=O)n2C3)c([N+](=O)[O-])c1)N1CCCC1", "note": "(configuration not stated)", "Potency": "inactive"},
      {"compound": "COC(=O)C1=C(c2ccc(F)cc2F)C[C@@H]2CC[C@H]1N2C(=O)NCc1ccc2c(c1)OCO2", "Potency": "inconclusive [activator, full curve, poor fit]"},
      {"compound": "O=C1CN=C(c2ccccc2)c2cc(Cl)ccc2N1", "Potency": "inactive"},
      {"compound": "CCOC(=O)[C@]12Cc3cc(C)ccc3[C@H]1N(Cc1ccccc1)C(=O)c1ccccc12", "Potency": "inconclusive [activator, partial curve, poor fit]"},
      {"compound": "O=C1NC(=O)N(c2ccccc2F)C(=O)/C1=C/c1ccc(Sc2nc3ccccc3[nH]2)o1", "Potency": "inconclusive [activator, single point]"},
      {"compound": "CC(=O)O[C@@H]1/C=C/[C@](C)(O)C[C@@H](C)C/C=C/[C@H]2[C@@H]3O[C@]3(C)[C@@H](C)[C@H]3[C@H](Cc4ccccc4)NC(=O)[C@@]312", "Potency": "active: 1.46 µM"},
      {"compound": "CCCCC/C(=N\\O)c1c[nH]c2ccccc12", "Potency": "inconclusive [activator, partial curve, poor fit]"},
      {"compound": "CCOC(=O)c1ccc(NC(c2ccc(N(C)C)cc2)P(=O)(OC(C)C)OC(C)C)cc1", "note": "(configuration not stated)", "Potency": "inconclusive [activator, single point]"},
      {"compound": "C[C@]12CCC3C(CC[C@H]4C[C@@H](O)CC[C@]34C)[C@H]1C=CC2=O", "note": "(some centres not stated)", "Potency": "inconclusive [activator, single point]"},
      {"compound": "CCCCCC(=O)N[C@@H](c1ccccc1)[C@@H](O)C(=O)O[C@H]1C[C@@]2(O)[C@@H](OC(=O)c3ccccc3)C3[C@](C)(C(=O)[C@H](O)C(=C1C)C2(C)C)[C@@H](OC1OCC(O)C(O)C1O)C[C@H]1OC[C@@]31OC(C)=O", "note": "(some centres not stated)", "Potency": "inconclusive [activator, partial curve, poor fit]"}
    ]}
  ]
}
